According to PubChem BioAssay AID651582 (Sanford-Burnham Center for Chemical Genomics, 2012):
The other results are listed elsewhere or left out. These are further read-outs of the screen, such as a control signal, another cell line or another target. No call is given for them. Compounds called inactive in the main read-out are mostly missing here.

assay: inhibitors of triacylglycerol accumulation, primary screen, cell-based, uHTS, fluorescence, H9c2 (AID 651582); settings: H9c2 cells, Nile Red lipid (TAG) fluorescence; measured here:; at 12.5 µM; cells loaded with 200 µM oleic acid

SMILES | DAPI nuclei signal change (viability), lower = more cytotoxic [%]
COc1cccc(-c2cc(=O)c3cc(NC(C)=O)ccc3[nH]2)c1 | -31.2
O=C(Nc1ccncc1)C1CCCN(S(=O)(=O)c2cccc3cccnc23)C1 (centres undefined) | -43.4
O=c1c2c3nc4ccccc4nc3n(/N=C/c3ccccn3)c2ncn1-c1ccccc1 | -11.2
COc1cc2c(cc1NC(=O)Nc1cccc(C)c1)oc1ccccc12 | 1.46
Oc1cc(-c2cccnc2)cc2cccnc12 | -49.6
COc1ccc([C@H]2CC(=O)C=C(c3ccc(OC)cc3OC)C2)cc1 | -40.2
COc1cc(CNc2ccc(N3CCCC3)cc2)cc(Cl)c1OC | -5.56
COc1cccc2sc(Nc3nc(-c4ccncc4)cs3)nc12 | -12.8
C=C(C)c1cccc(C(C)(C)NC(=O)N2CCC(C(N)=O)CC2)c1 | -39.8
O=C(NCCc1c[nH]c2ccccc12)C1CCC(Cn2c(=S)[nH]c3ccccc3c2=O)CC1 (centres undefined) | 2.53
CCn1cc([N+](=O)[O-])c(C(=O)N2N=C(c3ccc4ccccc4c3)CC2c2ccccc2O)n1 (centres undefined) | -7.16
COC(=O)C1=C(C)N(Cc2ccccc2)C(=NCc2cccc(Cl)c2)N[C@H]1c1cccc(F)c1 | -47.6
COc1ccc(NC(=O)C2(C)Cc3c(-c4cccc(C(N)=O)c4)ccnc3O2)cc1 (centres undefined) | -33.4
COc1ccc2nc3cc(Cl)ccc3c(Nc3ccc(O)c(CN4CCN(C)CC4)c3)c2c1 | -27.8
Nc1ncnc2c1ncn2[C@@H]1O[C@H](CNCc2cn(CC(=O)NC3CC3)c3ccccc23)[C@@H](O)[C@H]1O | -48.5
CC(C)CNS(=O)(=O)c1ccc(CCC(=O)Nc2cc(Cl)ccc2Oc2ccccc2)cc1 | -7.49
CCCCCc1cc(=O)oc2c(C(CCN3CCCCC3)c3ccc(OC)cc3)c(OC)cc(OC)c12 (centres undefined) | -30.4
CCC(C)(C)NC(=O)C(c1cccn1C)N(Cc1ccc(OC)cc1)C(=O)Cn1nnc2ccccc21 (centres undefined) | -4.05
N=c1n(CC(=O)c2ccc(Br)s2)c2ccccc2n1Cc1ccccc1 | -6.57
CCn1c(COc2ccc(C(C)C)cc2)nnc1SCC(=O)Nc1nccs1 | -5.31
COc1ccc(C(C(=O)NC(C)(C)C)N(Cc2ccco2)C(=O)CCC(=O)Nc2cc(C)on2)cc1 (centres undefined) | 18.9
CCOC(=O)c1cnc2ccc(OCC)cc2c1N1CCN(c2ccccc2)CC1 | 4.99
O=C(COc1ccc(Cl)cc1Cl)NN=C1c2ccccc2-c2ccccc21 | 22.6
C[C@H]1CN([C@@H](C)CO)C(=O)c2cc(NC(=O)Nc3cccc4ccccc34)ccc2O[C@@H]1CN(C)Cc1ccc(-c2ccccc2)cc1 | -0.226

SMILES | DAPI nuclei signal change (viability), lower = more cytotoxic [%]
COc1cc(OC)c2c(-c3ccccc3)cc(=O)oc2c1C(CCN1CCCC(C)C1)c1ccc2c(c1)OCO2 (centres undefined) | -31.6
COc1ccc(-c2noc(-c3ccccc3C(=O)Nc3cccnc3)n2)cc1 | -25.4
CC(C)(C)c1ccc(C(=O)NNc2cc(N3CCCCC3)nc(N3CCCCC3)n2)cc1 | -7.07
CC(=O)OCC(=O)[C@@]12OC3(CCCC3)O[C@@H]1C[C@H]1[C@@H]3CCC4=CC(=O)C=C[C@]4(C)[C@@]3(F)[C@@H](O)C[C@@]12C | 4.2
O=C1/C(=N\S(=O)(=O)c2cccs2)C([n+]2cccc(Cc3ccccc3)c2)=C([O-])c2ccccc21 | -25.6
O=c1c(Cl)c(Cl)cnn1Cc1nnc(-c2ccc(Cl)cc2)o1 | -17.5
CCOc1ccc2nc(NC(=O)CN3CCN(C)CC3)sc2c1 | -12.8
Cc1cc(C)c2sc(N(CCCN(C)C)C(=O)c3ccc(S(=O)(=O)N4CCc5ccccc5C4)cc3)nc2c1 | -42.3
O=c1c(Cl)c(Cl)cnn1-c1ccccc1 | -25.4
CN(C)CCCN(C(=O)c1ccc(S(=O)(=O)N2CCc3ccccc3C2)cc1)c1nc2ccc(F)cc2s1 | -33.1
CSc1ccc(C2=C/C(=C3/SC(=S)NC3=O)c3ccccc3O2)cc1 | -4.07
CCC(C)(C)c1ccc(OCCCC[n+]2ccccc2)c(C(C)(C)CC)c1 | -10.6
O=C(/C=C/Sc1ccc(C(F)(F)F)cn1)c1ccccc1 | -18.9
Cc1c(C(=O)OCC(C)C)[nH]c2c1C(=O)CC(c1cccs1)C2 (centres undefined) | -28.8
Cc1ccc2c(c1)Oc1ccc(NC(=O)CCl)cc1C(=O)N2 | -48.4
COc1ccc(NC(=O)Cn2c(-c3ccccc3)cn(-c3ccc(C)cc3)c2=O)cc1 | -6.36
O=C(Nc1cccc2ncccc12)c1ccc(Cl)cc1 | -11.8
CC(C)(C)OC(=O)[C@H](Cc1ccccc1)NC(=O)c1ncn2c1c(=O)[nH]c1ccc(Br)cc12 | -19.8
COC(=O)CC1C(=O)NCCN1C(=O)c1ccc(S(=O)(=O)N2CCOCC2)cc1 (centres undefined) | -42.5
NC1=C(Cl)C(=O)c2ccccc2C1=O | -50
Cc1c(C(=O)OCC2CCCO2)[nH]c2c1C(=O)CC(c1ccco1)C2 (centres undefined) | -24.7
CC(C)CCCCCCCCCCCCC(=O)NCC(=O)NC1C(C)OC(Nc2ncnc3nc[nH]c23)C(O)C1O (centres undefined) | -47
Cc1ccc2[nH]c(-c3ccccc3)cc(=O)c2c1 | -25.6
COc1ccc(NC(=O)C2(C)Cc3c(-c4ccc5c(c4)OCO5)ccnc3O2)cn1 (centres undefined) | -42

SMILES | DAPI nuclei signal change (viability), lower = more cytotoxic [%]
Cc1cc(C)c2sc(NC(=O)c3ccc([N+](=O)[O-])o3)nc2c1 | -41.2
CCC(=O)Nc1c(-c2ccc(OC)cc2)c(=O)c2ccccc2n1C | -49.1
COc1cc(/C=C/CN2CCC(C(=O)NC(c3ccc(F)cc3)c3ccc4ccccc4n3)CC2)ccc1OC(C)=O (centres undefined) | -0.458
Cc1ccc(Cl)cc1NC(=S)N/N=C/c1cccc2ccccc12 | -24.6
COc1cccc(Cn2c3ccc(NC(=O)CCc4ccc(F)cc4)cc3c(=O)n2C)c1 | -18.7
COc1ccc(CCn2c(-n3nc(C)cc3C)nc3c2c(=O)[nH]c(=O)n3C)cc1 | -17.4
CCOc1ccccc1NC(=O)C1CCN(C(=O)NCc2ccccc2)CC1 | -0.372
Cc1ccc(C(=O)c2no[n+]([O-])c2C(=O)c2ccc(C)cc2)cc1 | -7.4
Nc1nn(-c2ccccc2)c(N)c1N=Nc1cccc(F)c1 | -41.3
COc1cc(OC)c(-c2nn3c(-c4ccco4)nnc3s2)cc1OC | -6.22
CN1CCN(c2ccc(Cl)cc2NC(=O)c2ccc(S(=O)(=O)N(C)C)cc2)CC1 | -13.2
Oc1ccc(Nc2nc(NCC3CCCO3)c3ccccc3n2)cc1 (centres undefined) | -8.48
CCC1SC2=NC(C)=C(C(=O)OCC(C)C)C(/C=C/c3ccccc3OC)N2C1=O (centres undefined) | -16.4
CCOc1ccc(NC(=O)c2ccc(NC(=O)CSc3nc4ccccc4c(=O)[nH]3)cc2)cc1 | -25.2
Cc1cc(NC(=O)c2ccccc2F)n(-c2nc3ccccc3[nH]2)n1 | 25.8
Nc1c(C(=O)Nc2ccccc2)c2nc3ccccc3nc2n1CCCN1CCOCC1 | 40.4
CC(C)C[C@H]1C(=O)N2CCC[C@H]2[C@]2(O)O[C@](NC(=O)C3C=C4c5cccc6[nH]c(Br)c(c56)C[C@H]4N(C)C3)(C(C)C)C(=O)N12 (some centres undefined) | 15.8
CN(C)CCNc1ccc2ncn3c4ccc(O)cc4c(=O)c1c23 | -48.7
CN1C/C(=C/c2ccccc2[N+](=O)[O-])C(=O)/C(=C\c2ccccc2[N+](=O)[O-])C1 | -44.6
COc1ccc(C2c3cc4c(cc3OC(N3CCOCC3)C2C)OCO4)c(OC)c1 (centres undefined) | -16
COc1cc(CCCN2CCNC[C@@H]2c2ccccc2)cc(OC)c1OC | -46.3
CCOC(=O)c1c(C)[nH]c(-c2csc(N)n2)c1C | -31.3
COc1ccc(-c2sc3ccc(N4CCOCC4)cc3c2C#CCCO)cc1 | 58.9
O=C(N/N=C/c1cn(-c2ccccc2)nc1-c1cc2ccccc2o1)c1c[nH]c2ccccc12 | -26.2

SMILES | DAPI nuclei signal change (viability), lower = more cytotoxic [%]
CCC(C)NCC(=O)Nc1ccc(-c2nc3cc(NC(=O)CNC(C)CC)ccc3o2)cc1 (centres undefined) | 48
c1ccc(-c2csc(NNC3=NCCCCC3)n2)cc1 | -3.39
CC(C)=CCC/C(C)=C/CNC(=O)C[C@H]1C[C@H](C(=O)N2CCCCC2)[C@@]2(CCc3ccccc3)c3[nH]c4cc(-c5ccco5)ccc4c3CCN2C1=O | 8.48
c1ccc(C2Nc3ccccc3-c3nc4ccccc4n32)nc1 (centres undefined) | 15.5
O=C(NCCOc1nc(N2CCOCC2)nc(N2CCOCC2)n1)Nc1ccccc1 | -17.2
COc1ccc(C(=O)Nc2sc3c(c2C(=O)NCc2ccco2)CCCC3)cc1OC | -5.66
Oc1c(N=Nc2ccccn2)ccc2ccccc12 | -17.6
CS(=O)(=O)c1nc(-c2ccc(Br)cc2)cc(-c2ccccc2)c1C#N | -43.3
CCOc1ccccc1C1C2=C(COC2=O)Nc2cc3c(cc21)OCO3 (centres undefined) | -35
O=C(CSc1nc(Nc2ccccc2)nc(N2CCOCC2)n1)N1CCCC1 | -25.3
CC1CCc2c(sc3nc(C(C)(C)C)nc(N4CCN(C(=O)CCl)CC4)c23)C1 (centres undefined) | -47.2
C[C@@H]1CN([C@H](C)CO)C(=O)c2c(c3ccccc3n2C)-c2ccccc2CO[C@H]1CN(C)Cc1ccc(-c2ccccc2)cc1 | -35.1
Cn1nc(-c2ccc(Cl)cc2)c2cc(C(=O)NC3CC3)sc21 | -37.2
CCOC(=O)[C@H]1[C@H]2COc3ccc(Cl)cc3[C@@H]2N2C(=O)c3cc(Cl)ccc3NC(=O)[C@@]12C | -9.69
CCC(=O)NC(c1cc(Cl)c2cccnc2c1O)C1CC1 (centres undefined) | -41.9
CCCCC(=O)NC(c1ccc(Cl)cc1)c1ccc2cccnc2c1O (centres undefined) | -41.6
COc1ccccc1-c1cc(C(=O)NC2CCN(C)CC2)c2ccc(Cl)c(C)c2n1 | -48.5
CC(=O)c1ccc(N=Cc2c(O)n(-c3cc(Cl)ccc3N3CCOCC3)c(=O)c3ccccc23)cc1 | -5.93
CCc1ccc(-c2nc(C(N)=O)c3[nH]c(=O)n(-c4ccccc4OC)c3n2)cc1 | -30
CC1(C(=O)Nc2cccc(Oc3ccccc3)c2)Cc2c(-c3ccc4c(c3)OCO4)ccnc2O1 (centres undefined) | -46.8
COc1cc2c(cc1OC)C(C)N(C(=O)c1cc3c(C)cc(C)cc3[nH]1)CC2 (centres undefined) | -8.36
O=C(CSc1ccc(-c2cccc([N+](=O)[O-])c2)nn1)N1CCCC1 | -46.9
